# Hit rate of the full screen: of about 310,000 compounds, about 14,000 (4.5%) showed an effect of 50% or more. The effect is printed as a negative number. The list shows a part of the results.
# Target: human ether-à-go-go-related gene (hERG) potassium channel (human, UniProt Q12809)
# Test: primary screen, population patch clamp on CHO cells stably expressing hERG
# 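Note: peak tail current of the secondary pulse compared with the same well before compound.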
# human ether-à-go-go-related gene (hERG) potassium channel, sequence (Q12809 whole entry, looked up): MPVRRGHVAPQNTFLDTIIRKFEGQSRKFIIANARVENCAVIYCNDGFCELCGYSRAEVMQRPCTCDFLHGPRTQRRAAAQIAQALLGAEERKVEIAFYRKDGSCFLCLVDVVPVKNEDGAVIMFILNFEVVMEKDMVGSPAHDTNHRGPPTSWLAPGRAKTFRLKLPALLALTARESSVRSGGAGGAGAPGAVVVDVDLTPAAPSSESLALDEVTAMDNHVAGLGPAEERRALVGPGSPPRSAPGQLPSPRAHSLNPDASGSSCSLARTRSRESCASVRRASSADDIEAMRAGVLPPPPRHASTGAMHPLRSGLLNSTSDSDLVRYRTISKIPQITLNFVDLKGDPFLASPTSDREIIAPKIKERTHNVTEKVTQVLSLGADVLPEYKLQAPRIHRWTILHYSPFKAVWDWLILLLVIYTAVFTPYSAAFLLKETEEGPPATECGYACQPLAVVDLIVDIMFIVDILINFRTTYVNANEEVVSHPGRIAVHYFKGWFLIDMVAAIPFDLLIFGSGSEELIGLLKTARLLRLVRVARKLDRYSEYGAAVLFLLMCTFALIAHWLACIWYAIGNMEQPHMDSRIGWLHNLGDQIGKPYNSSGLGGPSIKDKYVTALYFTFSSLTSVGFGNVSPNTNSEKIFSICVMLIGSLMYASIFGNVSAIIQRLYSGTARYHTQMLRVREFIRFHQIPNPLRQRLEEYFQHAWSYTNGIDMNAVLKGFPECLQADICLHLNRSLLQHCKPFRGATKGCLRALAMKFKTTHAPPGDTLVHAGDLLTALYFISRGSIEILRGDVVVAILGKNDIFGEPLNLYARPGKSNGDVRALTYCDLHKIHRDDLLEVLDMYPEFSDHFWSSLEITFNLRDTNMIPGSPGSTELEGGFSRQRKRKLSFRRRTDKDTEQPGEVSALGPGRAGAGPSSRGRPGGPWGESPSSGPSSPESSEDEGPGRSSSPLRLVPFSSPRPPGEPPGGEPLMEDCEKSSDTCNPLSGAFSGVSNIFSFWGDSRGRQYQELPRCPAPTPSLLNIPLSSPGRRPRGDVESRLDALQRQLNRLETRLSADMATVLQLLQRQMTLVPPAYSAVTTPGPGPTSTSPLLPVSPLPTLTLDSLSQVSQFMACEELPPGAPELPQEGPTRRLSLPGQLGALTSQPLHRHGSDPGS
row,SMILES,"hERG current change (%, negative = inhibition) at 10uM [%]"
1,Nc1nc(CN2CCN(c3ccccc3)CC2)nc(Nc2ccc(Cl)cc2)n1,-76
2,Cc1cc(C)c(S(=O)(=O)NCC2CCC(C(=O)N3CCC4(CC3)OCCO4)CC2)c(C)c1 (centres unmarked),-25.3
3,COc1ccc(Nc2nnc(-c3ccccc3)c3ccccc23)cc1C(=O)N1CCCCC1,-73
4,CC(=O)Nc1ccc(S(=O)(=O)/N=C2\SCCN2S(=O)(=O)c2ccc(NC(C)=O)cc2)cc1,-5.46
5,CCOc1ccc(CCNC(=O)CS(=O)(=O)Cc2nc(-c3ccc(OC)cc3)oc2C)cc1,-3.84
6,CCC(C)(C)NC(=O)C(c1ccccc1)N(C(=O)c1csnn1)C1CC1 (centres unmarked),10.7
7,COCCNC(=S)N(CCc1c(C)[nH]c2ccc(Cl)cc12)Cc1cccnc1,-39.4
8,Cc1nnc(SCC(=O)N2CCc3ccccc32)n1-c1ccccc1,10.9
9,O=S(=O)(NCC(c1cccnc1)N1CCN(c2ccc(F)cc2)CC1)c1cccs1 (centres unmarked),-71.7
10,CC(C)(CNC(=O)c1cc(-c2ccc(Cl)s2)nc2ccccc12)N1CCOCC1,-55.1
11,Nc1cc(N)nc(SCC(=O)NC(=O)NC2CCCC2)n1,0.315
12,Cc1ccc(/C=C/S(=O)(=O)NCc2ccc(F)cc2)cc1,7.03
13,O=C(Cn1c(CO)nc2ccccc21)Nc1ccccc1Cl,25.1
14,CC1CN(CCOc2ccccc2-c2ccccc2)CC(C)O1.O=C(O)C(=O)O (centres unmarked),-9.99
15,COC(=O)c1ccc(COc2ccccc2/C=C(\C#N)C(=O)Nc2c(C)cccc2C)cc1,16.9
16,O=C1S/C(=C\c2cccs2)C(=O)N1c1ccc(O)cc1,21.9
17,CCOc1cc(C2C(C#N)=C(N)OC3CCCC(=O)C32)ccc1OCCN1CCOCC1 (centres unmarked),3.79
18,CC(C)CNC(=S)Nc1ccccc1F,6.48
19,C[C@H](NC(=O)Cc1cccc2ccccc12)C(=O)N1CCCN(C)CC1,-3.05
20,CCOC(=O)C1CCN(C(=O)C2CCN(c3ncnc4c3nc3n4CCCCC3)CC2)CC1,-13.8
21,COc1ccc(N2CCN(c3ncnc4c3cnn4-c3ccc(C)cc3C)CC2)cc1,6.29
22,O=C(c1cccc2ccccc12)N1CCN(c2ccc([N+](=O)[O-])c(NCc3ccco3)c2)CC1,10.2

row,SMILES,"hERG current change (%, negative = inhibition) at 10uM [%]"
1,Cc1cnc(C(=O)N2CCCC(C(=O)c3cccc(OC(C)C)c3)C2)cn1 (centres unmarked),-7.63
2,COC(=O)c1cc2oc(C)cc2n1CC(=O)N(C)c1ccccc1,5.36
3,O=C(Nc1nc(-c2cccc([N+](=O)[O-])c2)cs1)c1cccc([N+](=O)[O-])c1C(=O)O,13.5
4,CC1=CCC2C(=O)N(C(C)c3ccccc3)C(=O)C2C1 (centres unmarked),-2.1
5,COc1ccc(C(=S)N2CCC(C(N)=O)CC2)cc1Br,9.69
6,O=C(COC(=O)c1c[nH]c2ccccc12)Nc1ccc(F)cc1,-12.5
7,Cc1ccc(C(=O)Oc2cc(C)n(C)c(=O)c2)cc1,-2.14
8,COc1ccc(/C=N/NC(=O)CCc2nc3ccccc3[nH]2)cc1,-21.1
9,CN(C)S(=O)(=O)c1cccc(C(=O)Nc2cccnc2)c1,-0.761
10,O=C(N=C1c2ccccc2CN1c1ccc(F)cc1)c1ccc(Cl)nc1,-6.44
11,CC1CC(C)CN(CCCNC(=O)c2c(O)nc3ccccn3c2=O)C1 (centres unmarked),6.75
12,CN(C)c1ccc(CNc2ccc3c(c2)ncn3C(C)(C)C)cc1,-27.2
13,COc1ccc(NC(=O)CCCn2nc(C)c3c(C)n(-c4ccccc4)nc3c2=O)cc1OC,16.5
14,Nc1c(C(=O)c2ccccc2)sc2nsc(SCCN3CCCC3)c12,-38.2
15,COc1ccc(CCNC(=O)Cn2nnc(-c3ccc(N4CCOCC4)cc3)n2)cc1OC,0.8
16,COCCNC(=O)C(c1ccc(C)o1)N(Cc1ccc(F)cc1)C(=O)Cn1nnc2ccccc21 (centres unmarked),4.34
17,COc1ccc(CCNC(=O)Cc2cccs2)cc1OC,25.2
18,COC(=O)c1c(C(=O)NCc2ccccc2)ncn1CC(O)COc1ccccc1 (centres unmarked),-8.63
19,COc1ccc(C(CCN2CCCC(C)C2)c2c(OC)cc(OC)c3c2OC(=O)CC3c2cc(OC)c(OC)c(OC)c2)cc1 (centres unmarked),-20.6
20,Cc1ccc(OCC(=O)N2CCCC(N3CCN(c4ccc(F)cc4)CC3)C2)cc1 (centres unmarked),-101
21,O=C(C[n+]1ccccc1)N/N=C/c1ccccc1F.[Cl-],15.8
22,CC(C)c1c(C(=O)N/N=C/c2ccncc2)nnn1-c1nonc1N,-17.8

row,SMILES,"hERG current change (%, negative = inhibition) at 10uM [%]"
1,Cc1ccc(-c2nnc(CCC(=O)N(C)Cc3nccs3)o2)s1,-5.14
2,CCCCn1c(=O)c(CCC(=O)OCC(=O)Nc2cccc3ccccc23)nc2ccccc21,-17.9
3,CCCN(CC(=O)Nc1ccc(F)c(F)c1F)C(=O)c1ccc(N2CCCC2=O)cc1,-4.37
4,O=C(Nc1cnc2sccn2c1=O)c1ccc(Cl)cc1Cl,12.8
5,O=C(Oc1ccccc1N1C(=O)C2CCCCC2C1=O)c1ccccc1 (centres unmarked),30.5
6,Cc1nc2nc(C)c(CCC(=O)NCCC3=CCCCC3)c(C)n2n1,4.49
7,CCOCCn1c(CN(Cc2ccccc2)Cc2ccccc2)nc2c1c(=O)n(C)c(=O)n2C,-45.6
8,Cc1nnc(SCC(=O)N2CCN(c3ccccc3)CC2)n(N)c1=O,7.02
9,CCCn1c(SCC(=O)Nc2ccc(S(=O)(=O)N(C)C)cc2)n[nH]c1=O,3.64
10,C=C(C)CSc1nnc(-c2cccc(S(=O)(=O)N(C)C)c2)n1-c1cc(OC)ccc1OC,-47.4
11,Cc1cc(NC(=O)C2C3C(=O)N(Cc4ccc(Cl)cc4)C(C(=O)NC4CCCCC4)C34C=CC2(C)O4)no1 (centres unmarked),-13
12,Cc1cccc(-n2c(-c3csc(C)c3)n[nH]c2=S)c1,17.4
13,O=C(NCC1CCCO1)c1cc2ccccc2nc1Cl (centres unmarked),9.17
14,CN1CCN(Cc2cccc3ncccc23)CC1CCO (centres unmarked),13.8
15,COC(=O)Cc1ccc(NC(=S)N2CCCCC2C)cc1 (centres unmarked),-12
16,CCOC(=O)c1ccc(OS(=O)(=O)c2ccccc2)c(OC)c1,0.607
17,Cc1cccc(C)c1OCC(=O)NC1CC1,16.5
18,O=C(COC(=O)/C=C/c1ccc(F)cc1)Nc1ccc(Cl)cn1,36.3
19,O=C(NC12CC3CC(CC(C3)C1)C2)c1ccc([N+](=O)[O-])cc1,-9.32
20,CN(CC(=O)Nc1ccccc1C(F)(F)F)C(=O)C1CC1,10.3
21,CC(C(=O)N1CCOCCOCCOCC1)N1C(=O)c2ccccc2C1=O (centres unmarked),15.7
22,S=C(Nc1ccc(Br)cc1Cl)N1CCCC1,14.7

row,SMILES,"hERG current change (%, negative = inhibition) at 10uM [%]"
1,O=S(=O)(Cc1ccccc1)N1CCc2ccccc2C1,10.7
2,Cc1ccc(NC(=O)OCc2cccs2)cc1,2.35
3,CCOC(=O)C1=C(COc2ccccc2)NC(=O)NC1c1ccc2ccccc2c1 (centres unmarked),-12.3
4,COC(=O)c1sccc1-c1ccc(C(=O)Nc2cccnc2)o1,8.97
5,Cc1ccc([N+](=O)[O-])c(NC2OC(CO)C(O)C2O)c1 (centres unmarked),24.8
6,CN(CC(=O)NCCc1ccccc1)S(=O)(=O)c1cnc[nH]1,18.5
7,COC(=O)c1c(-c2ccc(F)cc2)csc1NC(=O)C1CCCO1 (centres unmarked),-3.35
8,N/C(=N\OC(=O)c1ccc(Cl)cc1)c1ccccn1,-3.7
9,Nc1ccc(-c2nc3cc(N)ccc3s2)cc1,1.12
10,O=C(CCc1nnc(CCCCc2ccccc2)o1)NCCN1CCCCC1=O,18.2
11,O=C(C1CCC(Cn2c(=S)[nH]c3ccccc3c2=O)CC1)N1CCOCC1 (centres unmarked),-4.29
12,N#C/C(=C\c1ccc(N2CCOCC2)o1)c1nc2ccccc2[nH]1,-24.5
13,Cc1sc2nc(SCC(=O)N3CC(C)OC(C)C3)n(C)c(=O)c2c1C (centres unmarked),0.428
14,O=C(O)c1[nH]c2ccc(Br)cc2c1CCN1C(=O)c2cccc([N+](=O)[O-])c2C1=O,4.58
15,Cc1ccc(N2C(=N)/C(=C3/Nc4ccccc4S3)C(c3ccccc3)C2=O)cc1 (centres unmarked),25.7
16,COc1ccc(N2CCOCC2)c(NC(=O)c2ccc3c(c2)OCO3)c1,-15.3
17,O=C(CSCC(=O)Nc1cccc([N+](=O)[O-])c1)Nc1ccccc1,-21.2
18,CNc1nc2c(C)cccn2c(=O)c1C=NCc1ccccc1,0.873
19,COc1cc2c(cc1OC)C(c1ccccc1)N(C(=O)c1ccccc1)CC2 (centres unmarked),-13.1
20,CC1(C)CC(=O)C2=C(C1)OC(N)=C(C#N)C2c1cc2c(cc1[N+](=O)[O-])OCO2 (centres unmarked),-11.6

# Reference: article PMC4336329 (PLoS ONE, 2015)
